Source: article PMC1334387
Results are given in words; binding and its absence hold for the method and conditions named. For some of these results: In cells and extracts the contact can be indirect. Some results given as binding are weak or reduced against the parent protein; the word gives no strength. For some of these results: Sequences can lack the tags named with a protein.

T1: YFP(1):OR83b / YFP(2):OR83b (OR83b with an N-terminal YFP fragment for the PCA) (Drosophila), Q9VNB5
T1 chain: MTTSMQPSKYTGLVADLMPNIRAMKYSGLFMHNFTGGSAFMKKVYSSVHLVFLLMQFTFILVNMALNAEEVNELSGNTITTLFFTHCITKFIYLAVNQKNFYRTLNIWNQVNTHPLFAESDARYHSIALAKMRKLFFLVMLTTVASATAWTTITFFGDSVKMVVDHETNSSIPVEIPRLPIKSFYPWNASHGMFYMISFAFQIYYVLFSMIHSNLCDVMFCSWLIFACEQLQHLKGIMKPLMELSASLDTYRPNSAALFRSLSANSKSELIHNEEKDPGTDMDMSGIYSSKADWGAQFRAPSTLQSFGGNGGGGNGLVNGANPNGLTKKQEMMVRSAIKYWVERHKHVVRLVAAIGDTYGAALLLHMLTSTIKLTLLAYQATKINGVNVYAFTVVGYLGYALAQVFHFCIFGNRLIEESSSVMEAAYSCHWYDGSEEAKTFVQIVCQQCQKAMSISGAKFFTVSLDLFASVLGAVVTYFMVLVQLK

T2: OR83b N-term (1-47) (Drosophila) (UniProt Q9VNB5)
T2 sequence: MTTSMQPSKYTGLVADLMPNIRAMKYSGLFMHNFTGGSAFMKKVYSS

T3: OR83b IC1 (97-134) (Drosophila) (UniProt Q9VNB5)
T3 sequence: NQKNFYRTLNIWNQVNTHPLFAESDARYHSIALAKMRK

T4: OR83b IC3 (412-459) (Drosophila) (UniProt Q9VNB5)
T4 sequence: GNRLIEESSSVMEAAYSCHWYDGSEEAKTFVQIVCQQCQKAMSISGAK

T5: OR83b IC2 (226-351) (Drosophila) (UniProt Q9VNB5)
T5 sequence: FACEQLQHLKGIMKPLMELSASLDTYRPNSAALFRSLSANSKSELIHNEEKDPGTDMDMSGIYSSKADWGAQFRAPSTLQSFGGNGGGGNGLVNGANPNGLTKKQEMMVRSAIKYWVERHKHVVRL

T6: YFP(1):OR83b / YFP(2):OR83b (OR83b with an N-terminal YFP fragment for the PCA) (Drosophila) (UniProt Q9VNB5)
T6 sequence: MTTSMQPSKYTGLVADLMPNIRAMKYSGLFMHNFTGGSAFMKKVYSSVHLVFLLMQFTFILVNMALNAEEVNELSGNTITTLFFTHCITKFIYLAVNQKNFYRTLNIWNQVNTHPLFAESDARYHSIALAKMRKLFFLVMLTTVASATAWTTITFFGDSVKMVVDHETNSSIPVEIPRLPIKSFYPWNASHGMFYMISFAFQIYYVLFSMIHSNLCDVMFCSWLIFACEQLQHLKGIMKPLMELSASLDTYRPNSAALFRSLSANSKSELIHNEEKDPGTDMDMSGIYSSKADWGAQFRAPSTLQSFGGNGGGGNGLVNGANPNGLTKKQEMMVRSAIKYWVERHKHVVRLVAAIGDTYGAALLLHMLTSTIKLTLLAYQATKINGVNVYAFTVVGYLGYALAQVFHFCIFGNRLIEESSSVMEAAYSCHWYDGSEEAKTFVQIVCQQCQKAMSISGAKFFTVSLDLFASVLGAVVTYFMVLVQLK


Assays:
[1] = biological target: T1, YFP(1):OR83b / YFP(2):OR83b (OR83b with …); experiment: split reporter; YFP protein-fragment complementation assay (PCA) in vivo; complementary YFP(1)/YFP(2) N-terminal fusions co-expressed with Or83b-Gal4 in Or83b neurons of Or83b null-mutant (Or83b1/Or83b2) flies; intrinsic YFP fluorescence in antennal sections; details: remark: other sources report otherwise
[2] = biological target: T1, YFP(1):OR83b / YFP(2):OR83b (OR83b with …); experiment: split reporter; YFP PCA in vivo; complementary fusions co-expressed with Gr21a-Gal4 in Gr21a neurons, where no OR is expressed; intrinsic YFP fluorescence in antennal sections; details: remark: other sources report otherwise
[3] = biological target: T2, OR83b N-term (1-47) (Drosophila); experiment: two-hybrid; GAL4 DNA-binding domain and activation domain fusions (pGBK-T7, pGAD-T7) in yeast AH109; six cotransformant colonies restreaked on media selecting for HIS3 and ADE2 reporters; growth scored after 3 d at 30 °C
[4] = biological target: T3, OR83b IC1 (97-134) (Drosophila); experiment: as above
[5] = biological target: T4, OR83b IC3 (412-459) (Drosophila); experiment: as above
[6] = biological target: T5, OR83b IC2 (226-351) (Drosophila); experiment: as above
[7] = biological target: T6, YFP(1):OR83b / YFP(2):OR83b (OR83b with an N-terminal YFP fragment for the PCA) (Drosophila); experiment: split reporter; YFP protein-fragment complementation assay (PCA) in vivo; complementary YFP(1)/YFP(2) N-terminal fusions co-expressed with Or83b-Gal4 in Or83b neurons of Or83b null-mutant (Or83b1/Or83b2) flies; intrinsic YFP fluorescence in antennal sections

| Binder | binding [3] | binding [4] | binding [5] | binding [6] | other results |
| --- | --- | --- | --- | --- | --- |
| YFP(1):OR83b / YFP(2):OR83b (OR83b with an N-terminal YFP fragment for the PCA), Q9VNB5 1-486 (receptor) MTTSMQPSKYTGLVADLMPNIRAMKYSGLFMHNFTGGSAFMKKVYSSVHLVFLLMQFTFILVNMALNAEEVNELSGNTITTLFFTHCITKFIYLAVNQKNFYRTLNIWNQVNTHPLFAESDARYHSIALAKMRKLFFLVMLTTVASATAWTTITFFGDSVKMVVDHETNSSIPVEIPRLPIKSFYPWNASHGMFYMISFAFQIYYVLFSMIHSNLCDVMFCSWLIFACEQLQHLKGIMKPLMELSASLDTYRPNSAALFRSLSANSKSELIHNEEKDPGTDMDMSGIYSSKADWGAQFRAPSTLQSFGGNGGGGNGLVNGANPNGLTKKQEMMVRSAIKYWVERHKHVVRLVAAIGDTYGAALLLHMLTSTIKLTLLAYQATKINGVNVYAFTVVGYLGYALAQVFHFCIFGNRLIEESSSVMEAAYSCHWYDGSEEAKTFVQIVCQQCQKAMSISGAKFFTVSLDLFASVLGAVVTYFMVLVQLK |  |  |  |  | binding [1]: binds; binding [2]: binds |
| NRANEICLENNRVAEAVYNVPWYEAGTRFRKTLLIFLMQTQHPME (domain or fragment, UniProt P81917 298-342) [OR43a IC3 (298-342)] | no binding | no binding | binds | no binding |  |
| OR22a IC3 (305-359) (domain or fragment, UniProt P81909 305-359) DVSMETFPFCYLCNMIIDDCQEMSNCLFQSDWTSADRRYKSTLVYFLHNLQQPIT |  |  | binds |  |  |
| YFP(1):OR43a / YFP(2):OR43a (OR43a with an N-terminal YFP fragment for the PCA) (receptor, UniProt P81917 1-376) MTIEDIGLVGINVRMWRHLAVLYPTPGSSWRKFAFVLPVTAMNLMQFVYLLRMWGDLPAFILNMFFFSAIFNALMRTWLVIIKRRQFEEFLGQLATLFHSILDSTDEWGRGILRRAEREARNLAILNLSASFLDIVGALVSPLFREERAHPFGLALPGVSMTSSPVYEVIYLAQLPTPLLLSMMYMPFVSLFAGLAIFGKAMLQILVHRLGQIGGEEQSEEERFQRLASCIAYHTQVMRYVWQLNKLVANIVAVEAIIFGSIICSLLFCLNIITSPTQVISIVMYILTMLYVLFTYYNRANEICLENNRVAEAVYNVPWYEAGTRFRKTLLIFLMQTQHPMEIRVGNVYPMTLAMFQSLLNASYSYFTMLRGVTGK |  |  |  |  | binding [7]: binds |
| HRLGQIGGEEQSEEERFQRLASCIAYHTQVMRYVWQLNK (domain or fragment, UniProt P81917 208-246) [OR43a IC2 (208-246)] | no binding | no binding | no binding | no binding |  |
| GR21a IC3 (357-416) (domain or fragment, UniProt Q9VPT1 357-416) NEAHYASRKVGLDFQTKLLNINLTAVDAATQKEVEMLLVAINKNPPIMNLDGYANINREL |  |  | no binding |  |  |
